Read counts are not given, so values of variants with three or more changes are uncertain.
B1: OR4K15 (parent)
chain: GUUAACGGUCAUAGGCCAUGGAAACUAGGAGCACCAUUUCGCUGCCAGUGAAGAAAUGAACAAAGAAAAUCUGGGCCAGGCAGGCAUCAAAAGAAAUAGUCUUGCGCUCAACCAGAAAGUCUGUAAUCAUUUUAAGGGUA

Variants of: B1
Experiment: self-cleavage, relative activity (ratio to wild type); higher = more cleavage; in vitro, sequencing; the parent is a self-cleaving ribozyme

| Variant | self-cleavage |
| --- | --- |
| GUUAACGGUCAUAGGCCAUGGAAACUAGGAGCACCACUCCGCUGCCAGUGACGAAAUGAACAAGGAAAAUCCGGGCCAGGCAGGCAUCAAAAGAGAUAGUCUUGCGCUCAACCAGAAAGUCUGUAAUCAUUUUAAGGGUA | 0.3 |
| GUUAACGGUCAUAGGCCAUGGAAACUAGGAGCACCACUUCGCUGCCAGUGAAGAAAUGAACAAAGAAAAUCUGGGCCAGGCAGGCAUCAAAAGAAAUAGUCUUGCGCUCAAACAGAAAGUCUGUAAUCAUUCUAGGGGUA | 0.02 |
| GUUAACGGUCAUAGGCCAUGGAAACUAGGAGCACCACUUCGCCGCCAGUGAAGAAAUGAACAAAGAGAAUCAGGGCCAGGCAGGCAUCAAAAGAAAUAGUCUUGCGCUCAACCAGAAAGUCUGUAAUCAUUUUAAGGGUA | 0.47 |
| GUUAACGGUCAUAGGCCAUGGAAACUAGGAGCACCACUUCGCCGCCAGUGAAGAAAUGAACAAAGAAAAUCUGGGCCACGCAGGCAUCAAAAGAAAUAGUCUUGCGCUCAACCAGAAAGUCUGUAAUCAUUUUAAGGCUA | 0.06 |
| GUUAACGGUCAUAGGCCAUGGAAACUAGGAGCACCACUUCGCUGCCAGUGAAGAAAUGAACAAAGAAAAUCUGGACCAGGCAGGCAUCAAAAGAAAUAGUCUUGCGCUCAACCAGAAAGUCUGUAAUCAUUUUAAGGGUG | 0.07 |
| GUUAACGGUCAUAGGCCAUGGAAACUAGGAGCACCACCUCGCUGCCAGUGAAGAAAUGAACAAAGAAAAUCUGGGCCAGGCGGGCAUCAAAAGAAAUGGUCUUGCGCUCAACCAGAAAGUCUGUAAUCAUUUUAAGGGUA | 0.23 |
| GUUAACGGUCAUAGGCCAUGGAAACUAGGAGCACCACUUAGCUGCCAGUGAAGAAAUGAACAAAGAAAAUCUGGGCCAGGCAGGCAUCAAAAGAAAUAGUCUUGCGCCCAACCGGGAAGUCUGUAAUCAUUAUAAGGGUA | 0.02 |
| GUUAACGGUCAUAGGCCAUGGAAACUAGGAGCACCACUUCGCAGCCGGUGAAGAAAUGAACAAAGAAAAUCUGGGCCUGGCAGGCAUCAAAAGAAAUAGUCUUGCGCGCAACCAGAAAGUCUGUAAUCAUUUUAAGGGUA | 0.02 |
| GUUAACGGUCAUAGGCCAUGGAAACUAGGAGCACCACUUCGCCGCCAGUGAAGAAAUGAACAGAGAAAAUCUGGGCCAGGCAGGCAUCAAAAGAAAUAGUCUUGCGCUCAACCAGAAAGUCUGUAAUCAUUUUAAGGGUA | 1.63 |
| GUUAACGGUCAUAGGCCAUGGAAACUAGGAGCACCACUCCGCUGCUAGUGAAGAAAUGAACAAAGAAAAUCUGGGCCAGGCAGGCAUCAAAAGAAAUAGUCUUGCGCUCAACCAGAAAGUCUGUAUUCAUUUUAAGGGUA | 0.9 |
| GUUAACGGUCAUAGGCCAUGGAAACUAGGAGCACCACCUCGCUGCCAGGGAAGAAAUGAACAAAGAAAAUCUGGGCCAGGCAGGCAUCAAAAGAAAUAGUCUUGCGCUCAACCAGAAAGUCUGUAAUCAUUUUAAGGGUA | 0.86 |
| GUUAACGGUCAUAGGCCAUGGAAACUAGGAGCACCACUUCGCUGCCAGUGAAGAAAUGAACAAAGAAAAUCUGGGCCAGGCAGGCAUCAAAAUAAAUAGUCUUGCGCUCAACCAGAAAGUCUGUAAUUAUUUUAAGGGUA | 2.12 |
| GUUAACGGUCAUAGGCCAUGGAAACUAGGAGCACCACUUCGCAGCCAGUGGAGAAAUGAACAAAGAUAAUCUGGGCCAGGCAGGCAUCAAAAGAAAUAGUCUUGCGCUCAACCAGAAAGUCUGUAAUCAUUUUAAGGGUA | 1.92 |
| GUUAACGGUCAUAGGCCAUGGAAACUAGGAGCACCACUUCGCUGCCAGCGAAGAAAUGAACAAAGAAAAUCUGGGCCAGGCUGGCAUCAAAAGAAAUAGUCUUGCGCUCAACCAGAAAGUCAGUAAUCAUUUUAAGGGUA | 0.15 |
| GUUAACGGUCAUAGGCCAUGGAAACUAGGAGCACCACUUCGCUGCCAAUGAAGAAAUGAGCAAGGAAAAUCUGGGCCAGGCAGGCAUCAAAAGAAAUAGUCUUGCGCUCAACCAGAAAGUCUGUAAUCAUUUUAAGGGUA | 0.8 |
| GUUAACGGUCAUAGGCCAUGGAAACUAGGAGCACCACUUCGCCGCCAGUGAAGAAAUGAACAAAGAAAAUCUGGGCCAGGCAGGCUUCAAAAGAAAUAGUCUUGCGCUCAGCCAGAAAGUCUGUAAUCAUUUUAAGGGUA | 0.01 |
| GUUAACGGUCAUAGGCCAUGGAAACUAGGAGCACCACUUCGCCGCCAGUGAAGAAAUGAGCAAAGUAAAUCUGGGCCAGGCAGGCAUCAAAAGAAAUAGUCUUGCGCUCAACCAGAAAGUCUGUAACCAUUUUAAGGGUA | 0.37 |
| GUUAACGGUCAUAGGCCAUGGAAACUAGGAGCACCACGUCGCUGCCAGUGAAGAAAUGAACAAAGAAAAUCUGGGCCAGGCAGGCAUCAAAAGAGAUAGUCUUGCGCUCAACCAGAAAGUCUGUAAUCAUUUUAAGGGUA | 1.75 |
| GUUAACGGUCAUAGGCCAUGGAAACUAGGAGCACCACUACGCUGCCAGUGAGGAAAUGAACAAAGAAAAUCUGGGCCAGGCAGGCAUCAAAGGGAAUAGUCUUGCGCUCAACCAGAAAGUCUGUAAUCAUUUUAAGGGUA | 0.32 |
| GUUAACGGUCAUAGGCCAUGGAAACUAGGAGCACCACUCCGCUGCCAGUGAAGAAAUGAACAAAGAAGAUCUGGGCCAGGCAGGCAUCAAAAGAAAUAGUCUUGCGCUCAACCAGAAAGUCUGUAAUCAUUAUAAGGGUA | 1.43 |

Source: the RNAGym collection of RNA variant scans (doi:10.7554/elife.90254)
